Assay results: PubChem BioAssay (NCI)
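Where inhibition never reached the appropriate level, the endpoint shown equals the highest concentration tested. Otherwise, values were interpolated linearly from a five-concentration, 48-hour dose response in 96-well plates. Abbreviation: GI50, concentration required for 50% inhibition of growth. TGI: total growth inhibition.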

Each molecule was assayed on NCI-H322M lung (assay: NCI anticancer screen, dose series, 48 h).
CCOC(=O)C(Cc1ccccc1)N1C(=O)/C(=C/N2N=C(c3ccc(OC)cc3)CC2c2ccc3ccccc3c2)SC1=S (configuration not stated) was tested, and the GI50 was 4.13 µM and the TGI was 15.4 µM.
For NS(=O)(=O)c1cccc(Nc2nc(SCC(=O)c3ccc(F)cc3)nc3ccccc23)c1, the GI50 was 16.5 µM and the TGI was > 57.7 µM.
For Cn1ncc2c(N)nc(Oc3ccccc3-c3ccccc3)nc21, the GI50 was 27.2 µM and the TGI was > 100 µM.
CN1CCN(Cc2ccc(NC(=O)c3cncc(C#Cc4cnc5ccc(N[C@@H]6CCOC6)nn45)c3)cc2C(F)(F)F)CC1 showed a GI50 of 0.193 µM and a TGI of 0.592 µM.
In the case of N#Cc1c(NC(=O)c2ccc(C(F)(F)F)c(Cl)c2)sc2c1CCC(=O)C2, the GI50 is reported as 3.88 µM and the TGI is reported as 18.6 µM.
In the case of O=C(CNc1nc(-c2ccccc2)cs1)Nc1cccc([N+](=O)[O-])c1, the GI50 is reported as 0.359 µM and the TGI is reported as 1.34 µM.
